The supplement of paper PMC3334620
Whole data set: some 33,000 sequences, median “E-score (-0.5 to 0.5)” near -0.017, cut for the highest 2% near 0.3. The list shows a part of the results.

molecular target: T1, Sut1 (UniProt P53032); test: PBM E-score (8-mer binding enrichment) (E-score (-0.5 to 0.5)); higher = stronger / more preferred TF binding; most listed sequences are background and not binding sites; details: protein concentration: 200 nM; construct: GST-full length
T1 sequence: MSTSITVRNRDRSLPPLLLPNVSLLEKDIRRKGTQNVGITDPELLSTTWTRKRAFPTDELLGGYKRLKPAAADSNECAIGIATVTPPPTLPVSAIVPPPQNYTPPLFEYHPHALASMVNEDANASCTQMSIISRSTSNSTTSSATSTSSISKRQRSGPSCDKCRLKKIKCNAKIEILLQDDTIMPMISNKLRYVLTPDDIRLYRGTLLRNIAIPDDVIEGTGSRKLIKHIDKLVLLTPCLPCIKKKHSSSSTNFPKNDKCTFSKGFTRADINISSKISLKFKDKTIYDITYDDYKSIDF
How it was run: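 Detection of bound protein used fluorescent anti-GST, with scans normalised by masliner. The proteins were GST-tagged yeast transcription factors applied at about 100-200 nM to universal all-10-mer Agilent arrays made double-stranded by primer extension. Each ungapped eight-base word, pooled with its reverse complement, was scored with an E-score from the Universal PBM Analysis Suite.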

Sequence | PBM E-score
AACTAAAC | 0.139
CGCCGGAG | 0.391
CTTCGGTC | 0.0562
ATCTAAAT | 0.207
CTTTCGCA | -0.0837
ATTCTCGA | 0.00271
GCTTAGTA | -0.0147
CAATTACC | 0.264
ATCGTGAC | -0.0551
AGTGAACG | -0.0586
CCATAGTA | 0.0275
CTGCTACC | -0.0857
AAATACGA | 0.127
ACGCTACC | -0.248
ACTCCTTG | 0.0763
AGCGATTC | -0.166
AGAGGCCC | -0.265
ATTTTATC | 0.321
GAGGTTAA | -0.0384
GCCAACCC | -0.214
CAGGCCCA | -0.282
CCTGCGCA | -0.242

Sequence | PBM E-score
GCCTAAAA | -0.026
ATCGAAAC | -0.0162
GTACCAAC | 0.0575
ACGCTGAC | -0.0605
TACATCGA | -0.0994
ATCGGGTA | -0.141
CTTACGCC | 0.143
AGGAATCC | -0.138
CCAGTTCG | -0.0833
ACGCGTTG | -0.0307
GCTGTTAA | 0.0929
CAGTGACG | -0.0793
CCGTCCTA | -0.121
ACAGCTAT | -0.0114
CATCGACC | -0.0867
ACGGCACT | 0.03
AAAACTCA | 0.155
GAATGATA | 0.259
CGTGTGAG | -0.161
GCATTTTA | 0.191
TATGAAGA | 0.178
AAGCAATT | 0.264

Sequence | PBM E-score
AGATGTGA | 0.0417
CATGTTTA | 0.0536
ACTTGCTC | -0.0493
CATTCACA | -0.00905
CTCTTCTC | -0.159
CCCAGGCG | -0.0984
ACCATAAT | 0.198
GCACGTTA | -0.0635
ATCTACTG | -0.0146
ACCGACGT | 0.0086
AAAGACAA | 0.223
ACCTGTTC | -0.081
CACAGTGA | -0.0779
AACGGTTC | -0.0755
CATGTGGG | -0.0538
GTCAGTTA | 0.143
ACACCATC | -0.185
AGCACAAT | -0.11
GTAATAAA | 0.284
CCGGCAAA | 0.18
ACCTAGTG | 0.101
CAACTTCC | 0.146

Sequence | PBM E-score
CACAGCTC | -0.0355
AGAGACTA | 0.0354
GGCACGAC | -0.0913
AAGATTGG | 0.101
AAATTCTG | 0.189
AATGGGTC | -0.133
CACAGATC | 0.0252
CGTCGTAA | -0.0262
CCGATCCC | -0.166
AAATGCAG | -0.0343
AGTTTGCA | 0.00589
GCGCCATA | -0.171
TCTTGCCA | -0.21
TCAGGGAA | -0.132
CCCCATAA | -0.104
CCTATTAG | -0.0106
CGCTGGCA | -0.191
AGGGATTC | -0.121
CAGCATCG | -0.272
CCATATGC | -0.0825
